# Read-outs that look alike come from different tables or passages of the source.
# System: Plutella xylostella (Cebu Strain)
# [1] = Plutella xylostella (Cebu Strain), 3DAI, May 2012
# [2] = Plutella xylostella Cebu strain, third instar larvae, leaf dip, 3DAI, May 2011
Structure (SMILES),LC50 [1] [ppm],LC90 [1] [ppm],LC50 [2] [ppm],LC90 [2] [ppm],"control (in place of LC50/LC90) (at 1000 ppm, Plutella xylostella Cebu strain, 3DAI, May 2011)",efficacy against the field collected Cebu strain of Plutella xylostella (summary of tables B.1A and B.1B)
"CNC(=O)c1cc(Cl)cc(C)c1NC(=O)c1cc(Br)nn1-c1ncccc1Cl [Chlorantraniliprole, chlorantraniliprole]",40.7,98.6,16.1,37.3,,
"CCS(CC)=NC(=O)c1cc(Cl)cc(Cl)c1NC(=O)c1cc(C(F)(F)F)nn1-c1ncccc1Cl [Compound I-16, 2-(3-chloro-2-pyridyl)-N-[2,4-dichloro-6-[(diethyl-λ^4-sulfanylidene)carbamoyl]phenyl]-5-(trifluoromethyl)pyrazole-3-carboxamide]",,,1.44,3.06,,
"CCS(CC)=NC(=O)c1cc(Cl)cc(C)c1NC(=O)c1cc(C(F)(F)F)nn1-c1ncccc1Cl [Compound I-11, 2-(3-chloro-2-pyridyl)-N-[2-methyl-4-chloro-6-[(diethyl-λ^4-sulfanylidene)carbamoyl]phenyl]-5-(trifluoromethyl)pyrazole-3-carboxamide]",,,2.22,4.93,,
"CNC(=O)c1cc(C#N)cc(C)c1NC(=O)c1cc(Br)nn1-c1ncccc1Cl [Cyantraniliprole, cyantraniliprole]",25.7,97.0,,,,
"Cc1cc(Cl)cc(C(=O)N=S(C(C)C)C(C)C)c1NC(=O)c1cc(C(F)(F)F)nn1-c1ncccc1Cl [Compound I-21, 2-(3-chloro-2-pyridyl)-N-[2-methyl-4-chloro-6-[(bis-2-propyl-λ^4-sulfanylidene)carbamoyl]phenyl]-5-(trifluoromethyl)pyrazole-3-carboxamide]",2.64,8.37,,,,
"Cc1cc(C(F)(C(F)(F)F)C(F)(F)F)ccc1NC(=O)c1cccc(I)c1C(=O)NC(C)(C)CS(C)(=O)=O [Flubendiamide, flubendiamide]",902,2703,,,insufficient control at 1000 ppm,only weak efficacies
"CC(C)S(=NC(=O)c1cc(Cl)cc(Cl)c1NC(=O)c1cc(C(F)(F)F)nn1-c1ncccc1Cl)C(C)C [Compound I-26, 2-(3-chloro-2-pyridyl)-N-[2,4-dichloro-6-[(bis-2-propyl-λ^4-sulfanylidene)carbamoyl]phenyl]-5-(trifluoromethyl)pyrazole-3-carboxamide]",,,0.82,1.55,,
